Here are results for 27 variants from the RNAGym collection of RNA variant scans (doi:10.1101/gad.245936.114).

This sample is rich in variants without activity. A value given as a limit tells only on which side of the number the result lay.

B1: tRNA (parent)
chain: CUCUCGGUAGCCAAGUUGGUUUAAGGCGCAAGACUUUAAUUUAUCACUACGAAAUCUUGAGAUCGGGCGUUCGACUCGCCCCCGGGAGAUUUUUUCCUCGAGCAA

The data set covers variants of B1. Description: nonsense suppression (GFP-seq) (ratio to wild type); higher = more function; SUP4oc tRNA, yeast GFP reporter sort-seq. In outline:
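Each variant's nonsense suppression (GFPSEQ) is a cell-share-weighted bin median GFP/RFP relative to the unmutated parent tRNA. Yeast with genome-integrated tRNA variants from a ~3% random-mutation library, a galactose-driven GFP ochre reporter and RFP were grown in raffinose/galactose medium with 80 mg/L adenine, then sorted into GFP/RFP bins for Illumina sequencing. Variants needed ≥100 reads and ≥30 cells.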
Take CUCUCGGUAGCCAAGUUGGUGUAAGGCGCAAGACUUUAAUUUAUCACUACGAAAUCUUGAAAUAGGGCGUUCGACUCGCCACCGGGAGAUUUUUUCCUCGAGCAA [U21G G61A C64A C81A]: the nonsense suppression was at most 0.026.

As for CUCUCGGUAGCCAAGCUGGUUUAGGGCGCAAGACUUUAAUUUAUCACUACGAAAUCUUGAGAUCGUGCGUUCGACCCGCCCCCGGGAGAUUUUUUCCUCGAGCAA [U16C A24G G66U U76C], the nonsense suppression was at most 0.026.

As for CUCUCGGUAGCCAAGUUGGUUUAAGGCGCAAGACUUUAAUUUAUCACUACGAAAUCUUGAGAUCGGGCGUUCGACUCGCGCCCGGGUCAUUUUUUCCUCGAGCAA [C80G A87U G88C], the nonsense suppression is at most 0.026.

Take CCCUCGGUAGCCAAGUUGGUUUGAAGCGCAAGACUUUAAUUUAUCACUACGAAAUCUUGAGAUCGGGCGUUCCACUCGCCCCCGGGAGAUUUUUUCCUCGAGCAA [U2C A23G G25A G73C]: the nonsense suppression was at most 0.026.

For CUCUCGGUAGCCAAGUUGGUGUCAGGCGCAAGACUUUAAUUUAUCACUACGAAAUCUUGAGAUCGGGCGUUCGACUCGCCCCCGGGAGAUUUUUUCCUCGAGCAA [U21G A23C], the nonsense suppression is at most 0.026.

Turning to GUCUCGGUAGCCAAGUUGGUUGAAGGCGCAAGACUUUAAUUUAUCACUACGAAAUCUUGAGAUCGGGCGUUCGACUCGCCCCCGGGAGAUUUUUUCCUCGAGCAA [C1G U22G], the nonsense suppression is at most 0.026.

On to CUCUCGGUAGCCAAGGUGGUUUAAGGCGCAAGACUUUAAUUUAUCACUACGAAAUCUUGAGAUCGGGCGUUCGACUCGUCCCCGGGAGAUUUUUUCCUCGAGCAA [U16G C79U], for which the nonsense suppression was 0.852.

As for CUCUCGGUAGCCAAGUUGGUUUAAGGCGCAAGAUUUUAAUUUAUCACUACGAAAUCUUGAGAUCGGGCGUACGACUCGCCCCCGGGAGAUUUUUUCCUCGAGCAA [C34U U71A], the nonsense suppression was at most 0.026.

CUCUCGGUGGCCAAGUUGGUUUAAGGCGCAAGACUUUAAUUUAUCACUACGAAAUCUUGAAAUCGGGCGUUCGACUCGCCCCCGGGGGAUUUUUUCCUCGAGCAA [A9G G61A A87G]: the nonsense suppression was 0.188.

As for CUCUCGGUAGCCAAGGUGUUUUAAGGCGCAAGACUUUAAUUUAUCACUACGAAAUCUUGAGACCGGGCGUUCGACUCGCCCCCGGGAGAUUUUUUCCUCGAGCAA [U16G G19U U63C], the nonsense suppression is at most 0.026.

Turning to CUCUCGGUAGCCACGUUGGUUUAAGGCGCAGGACUUUAAUUUAUCACUACGAAAUCUUGAGAUCGGGCGUUCGUCUCGCGCCCGGGAGAUUUUUUCCUCGAGCAA [A14C A31G A74U C80G], the nonsense suppression was at most 0.026.

In the case of CUCUCGGUAGCCAAGUUGGUUUAAGGCGCAAGACUUUAAUUUAUCACUACGAACUCUAGAGAUCGGGCAUUCGUCUCGCCCCCGGGAAAUUUUUUCCUCGAGCAA [A54C U58A G69A A74U G88A], the nonsense suppression is at most 0.026.

For CUCUCGGUAGCCGAGUUGGUUUAAGGCGAAGGACUUUAAUUUAUCACUACGAAAUCUUGAGUUCGGGCGUUCGACUCGCCCCCGGGAGAUUUUUUCCUCGAGCAA [A13G C29A A31G A62U], the nonsense suppression is at most 0.026.

In the case of CACUCGGUAGCCAAGUUGGUUUAAGGCGCAAGACUUUAAUUUAUCACUACGAAAUCUUGAGAUCGGGCGUUCGACUCGCUCCCGGGAGAUUUUUUCCUCGAGCAA [U2A C80U], the nonsense suppression came out at 0.0354.

As for CUCUCGGUAGCCAAGUUGGCUUAAGGCGCAAGACUUUAAUUUAUCACUACGAAAUCUUGAGAUCGGGCGUUCGACUCGCCCCGGGGAGAUUUUUUCCUCGAGCAA [U20C C83G], the nonsense suppression was at most 0.026.

For the variant CUCUCGGUAGCCAAGUUGGUUUAGGGCGCAAGACUUUAAUUUAUCACUACGAAAUCUUGAGAUGGGGCGUUCGACUCGCCCUCGGGAGAUUUUUUCCUCGAGCAA [A24G C64G C82U], the nonsense suppression is at most 0.026.

Take CUCUAGGUAGCCAAGUUGGUUUCAGGGGCAAGACUUUAAUUUAUCACUACGAAAUCUUGAGAGCGGGCGUUCGACUCGCCCUCAGGAGAUUUUUUCCUCGAGCAA [C5A A23C C27G U63G C82U G84A]: the nonsense suppression is at most 0.026.

As for UUCUCGGGAGACAAGUUGGUUUAAGGCGCAAGACUUUAAUUUAUCACUACGAAAUCUUGAGAUCGGGCGUUCGAGUCGCCCCCGGGAGAUUUUUUCCUCGAGCAA [C1U U8G C11A C75G], the nonsense suppression is at most 0.026.

Consider CACUCGGUAGCCAAGUUGGUUUAAGGCGCAAGACUUUAAUUUAUCACUACGAAAUCUUGAGACCGGGCGUUCGACUCGCCCCCUGGAGAUUUUUUCCUCGAGCAA [U2A U63C G84U], for which the nonsense suppression was at most 0.026.

Consider CUCUCGGUAGGCAAGUUGGUUUAAGGCGCAAGAUUUUAAUUUAUCACUACGAAAUCUUGAGAGCGGACGUUCGACUCGCCCCCGGGCGAUUUUUUCCUCGAGCAA [C11G C34U U63G G67A A87C], for which the nonsense suppression was at most 0.026.

Regarding CUCUGGGUAGCCAAGUUGGUUUAAGGCGAUAGACUUUAAUUUAUCACUACGAAAUCUUGAGAUCGGGCUGUCGACUCGCCCCCGGGAGAUUUUUUCCUCGAGCAA [C5G C29A A30U G69U U70G], the nonsense suppression is at most 0.026.

Regarding CGUUCGGUAGCCAAGUUGGUUUAAGGCGCAAGACUUUAAUUUAUCACUACGAAAUCUUGAGAUCGCGCGUUCGACUCGCCCCCGGGAGAUUUUUUCCUCGAGCAA [U2G C3U G66C], the nonsense suppression was at most 0.026.

On to CUCUCGGUAGCCAAGUUGGUUUAUGGCGCAAGACUUUAAUUUAUCACUACGAAAUCUUGAGAUCGGGCGUUCGACUCGCCCCAGGGAGAUUUUUUCCUCGAGCAA [A24U C83A], for which the nonsense suppression is at most 0.026.

On to CUCUCGGUAGCCAAGUUGGUUUAAGCCGCAAGACUUUAAUUUAUCACUACGAAAUCUAGAGAGGGGGCGUUCGACUCGCACCCGGGAGCUUUUUUCCUCGAGCAA [G26C U58A U63G C64G C80A A89C], for which the nonsense suppression was at most 0.026.

On to CUCUUGGUAGCCGAGUUGGUUUAAGGCGCAAGACUUUAAUUUAUCACUACGAAAUCUUGAGAGCGGGCGUUCGACACGCCCACGGGAGAUUUUUUCCUCGAGCAA [C5U A13G U63G U76A C82A], for which the nonsense suppression is at most 0.026.

On to CUCUAGAUAGCCAAGUAGGUUUAAGGCGCAAGACUUUAAUUUAUCACUACGAACCCUUGAGAUCGGGCGUUCGACUCGCCCCCGGGAGAUUUUUUCCUCGAGCAA [C5A G7A U17A A54C U55C], for which the nonsense suppression is at most 0.026.

For CUCUCGGUAGCCAAGUUGGUUUAAGGCGCAAGACUUUAAUUUAUCACUACGAAAUCCUGAGACCGGGCGUUCGACACGCCCCCGGGAGAUUUUUUCCUCGAGCAA [U57C U63C U76A], the nonsense suppression was at most 0.026.
